About 65 (0.1%) of roughly 45,000 compounds were called active. Calls follow the shape of the dose curve; as a rule, active = well fitted activation curve with a large enough effect; inconclusive = small, poorly fitted or top-dose-only effect; inactive = no such curve, though single readings can be large or run the other way. The list shows a part of the results.
These molecules were tested against Galactocerebrosidase (Homo sapiens) (UniProt P54803) (assay: A Novel Cell-Based Assay to Identify Small Molecules for B -Galactocerebrosidase). Conditions: 145M-Twi-hGALC-G270D cells, HMU-beta-Gal fluorescence, 48 h; series mostly up to 57.5 µM; activation: at the top concentration.
Sequence of UniProt P54803 (P54803 whole entry, looked up): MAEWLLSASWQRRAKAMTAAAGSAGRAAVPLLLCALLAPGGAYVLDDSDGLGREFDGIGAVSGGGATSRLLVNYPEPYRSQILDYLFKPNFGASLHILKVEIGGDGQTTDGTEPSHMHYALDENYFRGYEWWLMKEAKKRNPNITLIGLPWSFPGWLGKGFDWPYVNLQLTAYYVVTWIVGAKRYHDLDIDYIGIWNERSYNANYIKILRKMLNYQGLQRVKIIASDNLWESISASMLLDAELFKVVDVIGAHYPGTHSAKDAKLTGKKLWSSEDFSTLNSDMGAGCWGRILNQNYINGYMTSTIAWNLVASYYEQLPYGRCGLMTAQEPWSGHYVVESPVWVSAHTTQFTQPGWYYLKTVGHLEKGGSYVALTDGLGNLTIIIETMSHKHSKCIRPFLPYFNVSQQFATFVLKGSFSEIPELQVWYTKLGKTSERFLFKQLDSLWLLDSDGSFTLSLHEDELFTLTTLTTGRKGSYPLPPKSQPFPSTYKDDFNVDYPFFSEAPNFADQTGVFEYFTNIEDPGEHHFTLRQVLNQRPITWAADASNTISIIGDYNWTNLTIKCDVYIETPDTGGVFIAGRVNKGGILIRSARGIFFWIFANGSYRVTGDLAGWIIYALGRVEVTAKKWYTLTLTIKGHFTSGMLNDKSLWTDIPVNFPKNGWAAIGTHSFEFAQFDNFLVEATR
Summary of the method: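 qHTS, 1536-well; 145M-Twi-hGALC-G270D cells (WT line also made) in DMEM/F12 + 10% FBS; compound incubation on live cells; HMU-β-gal 0.1 mM final, pH 5.2, NaTC; carbonate stop; fluorescence increase = enhanced residual activity.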
Also: 0% is about no effect; nearly all actives have a fitted effect of over 65% in size.

activation, inactive:
CCCN1CCN(CCCNC(=O)c2ccc3nc(Cc4ccccc4)oc3c2)CC1 -14.3%, CCOc1ccc(CN(CCc2ccc3c(c2)OCO3)Cc2cc(OC)c(OC)cc2OC)cc1 -2.36%, CCCCN1CC(c2nc3ccccc3n2CCCCOc2cccc(C)c2C)CC1=O (stereo not drawn) -36.8%, COc1ccc2c(CNCCc3cccs3)c(C(=O)O)n(Cc3ccc(F)cc3Cl)c2c1 -22.6%, Cn1c(=O)cc(SCC(=O)N2CCN(c3ccccc3F)CC2)c2ccccc21 -12.2%, COc1ccc(-c2cc3nc(C4CCN(C(=O)OC(C)(C)C)CC4)c(C(=O)Nc4cc(C)cc(C)c4)cn3n2)cc1 -11.5%, CCC(Sc1nnc2c3ccccc3n(CC)c2n1)C(=O)Nc1nnc(C(C)C)s1 (stereo not drawn) -26.2%, Cc1cc(-n2c(C)nc3ccccc3c2=O)ccc1NC(=O)c1ccccc1[N+](=O)[O-] -16.2%, Cc1cc(C)cc(NC(=O)CCCc2nc(-c3ccco3)no2)c1 -12.3%, COc1ccc(C)cc1NC(=O)c1cc(S(=O)(=O)N2CCCCC2)c[nH]1 -7.37%, COc1ccccc1C(=O)Oc1ccc(C(c2c(C)[nH][nH]c2=O)c2c(C)[nH][nH]c2=O)cc1 -21.8%, COC(=O)c1cc(-c2ccc(C)cc2)c2c(=O)n(C)c(=O)n(C)c2n1 2.28%, OCCN(CCO)c1ncnc2c1cnn2-c1ccc(F)cc1 -3.15%, Cc1nc(-c2ccc(F)cc2)sc1CCNC(=O)C(=O)Nc1ccc2c(c1)OCCO2 -9.14%, O=C(CCCn1c(=O)c2cccn2c2ccccc21)NCCc1ccc(Cl)cc1 -12%, Cc1ccc(S(=O)(=O)NC(=O)NN2CC3CCCC3C2)cc1 (stereo not drawn) -9.95%, CSc1nn(Cc2ccc(C)cc2)c(N)c1S(=O)(=O)c1ccccc1 -13.7%, COc1cccc(CNC(=O)c2cc(S(=O)(=O)N3CCCCC3)c[nH]2)c1 -11.9%, COc1ccc(-c2cc(C(F)(F)F)nc(NCCc3ccccc3)n2)cc1OC -6.05%, Cc1csc2nc(COC(=O)c3ccccc3NC(=O)c3ccc(C(C)(C)C)cc3)cc(=O)n12 -4.48%, COc1ccc(CC(=O)Nc2ccc(-c3nc4ccccc4s3)c(C)c2)cc1OC 0.328%, COc1ccc2oc(=O)c(C(=O)N3CCN(c4ccc(C)cc4)CC3)cc2c1 -18.1%, Cc1cc(C)n(-c2nc3ccccc3nc2N2CCN(c3cccc(C(F)(F)F)c3)CC2)n1 -10.4%, O=C(NCc1ccccc1Cl)c1ccc2oc(=O)n(Cc3ccccc3)c2c1 -13.6%, Cc1c(CC(=O)NCc2ccc(F)cc2)c(=O)oc2cc(O)c(Cl)cc12 -19%, COc1ccc(NC(=O)CC2NCCNC2=O)c(OC)c1 (stereo not drawn) -2.79%, CCOc1cccc2sc(N(Cc3cccnc3)C(=O)c3ccc(C#N)cc3)nc12 -11.3%, CCOC(=O)c1c(NC(=O)C2c3ccccc3Oc3ccccc32)sc(C)c1C 1.95%, Cc1ccc(-n2c(SCc3ccccc3)nc3c([nH]c4ccccc43)c2=O)cc1 -4.71%, Cc1cccc(-n2nc(C)c(C(=O)Nc3cc(C)ccc3C)c2-n2cccc2)c1 -7.85%, Cc1cc(NC(=O)CCNS(=O)(=O)c2cccc3nsnc23)ccc1Br 4.82%, Cc1ccc(NC(=O)c2ccccc2Br)c(C(=O)c2ccccc2)c1 -5.39%, Cc1nnc(NC(=O)c2ccccc2)s1 -14.8%, CCC1(C)Cc2c(sc3nc(SC)n(-c4ccc(C)cc4)c(=O)c23)CO1 (stereo not drawn) -10.6%, COc1ccc(CNC(=O)c2ccc3nc(-c4ccc(F)cc4)c(-c4ccc(F)cc4)nc3c2)cc1 -10.6%, O=C(Nc1ccc(-c2nc3cc(Cl)ccc3o2)cc1)c1cc2ccccc2o1 -19.3%, CC1CCN(c2nc3ccc(C(=O)NCc4ccccc4)cc3s2)CC1 -11.8%, COc1ccc(Cn2c(SCc3ccc(C(=O)NC(C)c4ccccc4)cc3)nc3cccnc32)cc1 (stereo not drawn) -11.3%, CC(=O)c1c(C)oc2c1cc(NS(=O)(=O)c1ccc(Cl)c(C)c1)c1ccccc12 -12%, O=S(=O)(NCc1nc2cccnc2n1Cc1ccccc1Cl)c1ccc(F)c(Cl)c1 -21.7%, COc1cc(NC(=O)CCCOc2cc(=O)n(C)c3ccccc23)cc(OC)c1OC 3.41%, CCOC(=O)CNC(=O)N1CCN(c2nnc(C)c3c(C)n(-c4ccc(Cl)cc4)nc23)CC1 -5.21%, COc1ccc(OC)c(NC(=O)Cn2c(=O)cc(-c3ccccc3)c3c(C)nn(C)c32)c1 -6.59%, CCOc1ccc(N(Cc2ccccc2)C(=O)c2nc(S(C)(=O)=O)ncc2Cl)cc1 -8.45%, CCc1ccc(S(=O)(=O)c2nnn3c2nc(Nc2ccc(NC(C)=O)cc2)c2sccc23)cc1 -15.2%, Cc1cccc(N2CCN(C(=O)CS(=O)(=O)Cc3nc(-c4ccccc4C)oc3C)CC2C)c1 (stereo not drawn) -2.2%, CCOC(=O)C1CCCN(Cc2cn3c(-c4cccc(Br)c4)nnc3s2)C1 (stereo not drawn) -1.57%, Cc1nc(-c2ccc(C)c(N3CCN(C(=O)Nc4cccc(Cl)c4C)CC3)c2)no1 -11.4%, Cc1ccc(-n2c(Cc3ccccc3)nnc2SCc2nc(-c3cccs3)no2)cc1C -1.37%, O=C(Nc1ccc(Cl)cc1)C(NS(=O)(=O)c1cccs1)c1ccccc1 (stereo not drawn) 0.516%, Cc1cccc(OCC(=O)Nc2nnc(S(=O)(=O)N3CCc4ccccc43)s2)c1 -14.5%, O=C(O)CCC(=O)OC[C@@H](NC(=O)C(Cl)Cl)[C@H](O)c1ccc([N+](=O)[O-])cc1 -11.6%, Cc1ccc2oc(=O)c3cnn(CC(=O)NCc4ccccc4Cl)c3c2c1 -21.9%, CCc1ccc(-n2c(=O)c3c4c(sc3n(Cc3ccc(F)cc3)c2=O)CCCC4)cc1 2.71%, COc1ccc(CNC(=O)c2cccc(N3CCCS3(=O)=O)c2)cc1 -17.4%, O=C1[C@@H]2CSC(c3ccc(F)cc3)N2C(=O)N1c1ccc(Cl)cc1 (stereo partly drawn) -16.4%, Nc1ncc(S(=O)(=O)NCc2cccc(Cl)c2)cn1 -21.3%, O=C(Cn1c(=O)n2nc(-c3ccccc3)nc2c2ccccc21)Nc1ccccc1C(F)(F)F -8.4%, COc1ccc2cc(CCC(C)=O)ccc2c1 -15.5%, COc1ccc(S(=O)(=O)N(Cc2nc(-c3ccc(C)cc3)no2)C2CCCCC2)cc1 -11%, Cc1ccc(C)n1-c1nnc(N2CCC(C(=O)NCc3ccccc3Cl)CC2)s1 -7.95%, Cc1ccc(-c2nc(CCNC(=O)C(=O)Nc3ccc(C)c(C)c3)cs2)cc1 -7.39%, CCOC(=O)CNC(=O)Nc1cc(C(=O)NCc2cccc(F)c2)ccc1N1CCCC1 -12.2%, CS(=O)(=O)c1ccc2nc(NC(=O)CS(=O)(=O)c3ccc(Cl)cc3)sc2c1 -3.6%, Cc1ccc(-c2nc3scc(CCNC(=O)c4cccc(Br)c4)n3n2)cc1 -2.31%, COc1ccccc1NC(=O)C1CCCN(c2nnc(C)c3c(C)n(-c4ccccc4)nc23)C1 (stereo not drawn) -12.8%, COc1ccc(NC(=O)c2ccc3nc(CCc4ccccc4)oc3c2)cc1 -3.43%, CCCCC12CN3CC(C)(CN(C1)C3c1cc(Br)ccc1O)C2=O (stereo not drawn) -31.7%, O=C(Cn1c(=O)n(Cc2ccco2)c(=O)c2cccnc21)Nc1ccccc1F -22%, CCCN(CCC)C(=O)Cn1c(=O)n(-c2cccc(C(F)(F)F)c2)c(=O)c2c(C)c(C)sc21 -17.3%, CCOc1cc(C(=O)Nc2ccc(-c3nc4cc(C)ccc4o3)cc2)cc(OCC)c1OCC -15.2%, O=C(Nc1ccc2nc(SCC(=O)N3CCCC3)sc2c1)c1ccccc1 -5.39%, CCOc1ccccc1NC(=O)CSc1nc2ccccc2c2nc(CCn3cncc3C)nn12 -25.2%, Cc1ccc(NC2=C(c3ccc(C(F)(F)F)cc3)C(=O)c3ccccc32)cc1F 2.89%, O=C(NCC(c1cccnc1)N1CCc2ccccc21)c1ccccc1Br (stereo not drawn) -10.5%, CCCCCC(C)N (stereo not drawn) -13.7%, COc1ccc(CNC(=O)Cn2c(SCC(=O)N(C)c3ccccc3)nc3ccccc32)cc1 -16.5%, CCCCn1c(=O)n(-c2ccc(Br)cc2F)c(=O)c2c3c(sc21)CN(C(C)=O)CC3 3.52%, COc1cc(C(=O)Nc2ccc3nn(-c4ccc(F)cc4)nc3c2)cc(OC)c1OC -10.8%, CCOC(=O)c1noc2nc(C)n(CC(=O)Nc3cc(Cl)ccc3OC)c(=O)c12 -27.5%, Cc1ccc(OCC(=O)Nc2c(C(=O)c3ccccc3)oc3ccccc23)cc1C -8.4%, CC1=C(C(=O)OCC2CCCCC2)C(c2ccc(F)cc2F)CC(=O)N1 (stereo not drawn) -7.15%, COc1ccccc1CNC(=O)C(=O)NCC(c1cccs1)S(=O)(=O)c1ccc(F)cc1 (stereo not drawn) -7.57%, Oc1c(C(c2ccccc2)N2CCN(Cc3ccccc3)CC2)sc2nc(-c3ccco3)nn12 (stereo not drawn) -26.6%, Cc1ccc(CNC(=O)C2CCN(S(=O)(=O)N3CCC(C)CC3)CC2)cc1 -14.8%, Cc1csc2nc(COC(=O)c3ccc(NC(=O)COc4ccccc4F)cc3)cc(=O)n12 -16.2%, CC(=O)Nc1nnc(SCc2cc(=O)c3cc(C)ccc3[nH]2)s1 -32.7%, CC1=C(C(=O)Nc2ccccc2)C(c2ccccc2)n2nc(-c3ccco3)nc2N1 (stereo not drawn) -15.2%, COc1ccc(NC(=O)Cn2c(SCc3cccc(Cl)c3)nc3ccncc32)c(OC)c1OC -13.5%, NC(=O)NC1N=C([O][Al])NC1=O (stereo not drawn) -9.88%, COc1cc(Cl)c(C)cc1NC(=O)CCc1nc2cccnc2n1-c1ccccc1 -16.3%, CCOc1ccccc1NC(=O)C(C)Sc1cc(-c2ccccc2)nc(C)n1 (stereo not drawn) -12.2%, Cc1ccc(NCc2cccn2-c2nnc(N3CCCCCC3)s2)cc1 -20.3%, CCOc1ccccc1NC(=O)CCn1c(-c2ccc(OC)cc2)cc(C(C)=O)c1C -0.0622%, CCn1cc(C(=O)O)c(=O)c2ccc(C)nc21 -13.5%, COc1ccc(-c2nnc(SCC(=O)Nc3cccc(F)c3)s2)cc1 -9.97%, CCCCNC(=O)C1CCN(S(=O)(=O)c2cc(Br)cc3c2N(C(=O)CC)CC3)CC1 -13.6%, Cn1c(=O)cc(SCC(=O)NCc2ccc(F)cc2)c2ccc(Cl)cc21 -21.8%
